Assay results taken from PubChem BioAssay AID1347043 (National Center for Advancing Translational Sciences (NCATS), 2019).
About 1,900 (2.5%) of roughly 76,000 compounds were called active. The shares of active, inactive and inconclusive entries below differ from those in the screen. Calls follow the shape of the dose curve; as a rule, active = well fitted inhibition curve with a large enough effect; inconclusive = small, poorly fitted or top-dose-only effect; inactive = flat fitted curve, though single readings scatter. Potencies beside an inconclusive call are fits to weak or partial responses and may not hold up.

molecular target: Luciferin 4-monooxygenase (Photinus pyralis) (UniProt P08659); assay: Firefly luciferase inhibition profiling of diverse chemical library using quantitative high-throughput screening; also: nearly all actives have a fitted effect of over 65% in size; conditions: purified P. pyralis luciferase, luminescence, biochemical; activity change, negative = inhibition: at 115 µM (top of the series) unless noted
Sequence of UniProt P08659 (P08659 whole entry, looked up): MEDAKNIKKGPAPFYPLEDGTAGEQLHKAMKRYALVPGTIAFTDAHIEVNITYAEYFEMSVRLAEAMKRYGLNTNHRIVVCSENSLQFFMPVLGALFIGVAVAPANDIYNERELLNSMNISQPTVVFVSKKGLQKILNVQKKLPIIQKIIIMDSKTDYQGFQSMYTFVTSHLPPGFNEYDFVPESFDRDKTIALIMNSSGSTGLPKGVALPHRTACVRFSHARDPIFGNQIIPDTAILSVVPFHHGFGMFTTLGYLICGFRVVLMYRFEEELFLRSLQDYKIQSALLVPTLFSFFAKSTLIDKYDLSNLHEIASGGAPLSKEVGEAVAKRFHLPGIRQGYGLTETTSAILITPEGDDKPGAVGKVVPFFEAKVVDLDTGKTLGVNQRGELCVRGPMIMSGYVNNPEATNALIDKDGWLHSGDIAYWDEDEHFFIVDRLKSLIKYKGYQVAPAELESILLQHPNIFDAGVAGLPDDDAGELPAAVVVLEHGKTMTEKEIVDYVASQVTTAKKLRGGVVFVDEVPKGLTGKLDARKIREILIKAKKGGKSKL
In short: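 Purified 10nM P. pyralis luciferase with 10uM D-luciferin and 10uM ATP in 50mM Tris acetate pH 7.5, 10mM Mg acetate, 0.01% Tween-20, 0.05% BSA. qHTS titration; luminescence read by CCD imager.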
% is scaled to controls: 0 for no effect and ±100 for the full control effect; potency is read from the fitted curve at half-maximal effect; tags tell the direction and shape of the fitted curve.

SMILES	activity change, negative = inhibition	Potency
CCn1ncc(N2CCCC(CC(=O)N(C)Cc3ccccc3)C2)cc1=O (centres undefined)	inactive: 6.57%	–
Clc1cccc(-c2ccc(CN3CCN(C4CCNC4)CC3)o2)c1 (centres undefined)	–	inconclusive: 44.7 µM [inhibitor, partial curve]
Cc1nc(N2CCC(C(=O)NCC3CCCO3)CC2)cc(C(F)(F)F)n1 (centres undefined)	inactive: 0%	–
Fc1ccc(-c2noc([C@@H]3Cc4nc[nH]c4CN3CCCc3ccccc3)n2)cc1Cl	–	inconclusive: 44.7 µM [inhibitor, partial curve]
Cc1ccc(-c2cc3c(=O)n(CCNC(=O)Cc4c[nH]c5ccccc45)ccn3n2)c(C)c1	–	inconclusive: 22.4 µM [inhibitor, full curve]
CCc1noc(-c2nc(-c3ccc(OC)c(F)c3)no2)n1	–	inconclusive: 39.8 µM [inhibitor, partial curve]
CCN(CC)c1cc(CCC(=O)O)ccn1	–	active: 6.31 µM
COC(=O)N(C)Cc1ccc(-c2ccccc2)cc1	–	inconclusive: 50.1 µM [inhibitor, partial curve]
CN(C)c1cccc(C(=O)N2CCC(n3cc(-c4nc(-c5ccccc5)no4)nn3)CC2)c1	–	inconclusive: 100 µM [inhibitor, single point]
CNC(=O)c1cccc(-c2cnc(Nc3ccc(N4CCOCC4)cc3)c3c2CCO3)c1	–	active: 0.631 µM
Cc1ccc(-c2cc(C(=O)N[C@H]3Cc4ccccc4[C@@H]3N)n[nH]2)s1	–	inconclusive: 35.5 µM [inhibitor, full curve]
COc1cccc(-c2cc3c(=O)n(CCNC(=O)C4CCN(C(C)=O)CC4)ccn3n2)c1	–	active: 14.1 µM
COc1ccc(Nc2cnc3ccc(-c4ccccc4)nn23)cc1	–	inconclusive: 126 µM [inhibitor, single point]
CCC(=O)NC[C@H]1Cn2cc(-c3ccccc3)nc2CO1	–	inconclusive: 141 µM [inhibitor, single point]
COCCC(=O)NC[C@@H]1C=C(C)[C@H](CC(=O)N(C)Cc2cccnc2)C[C@H]1C(C)C	–	active: 56.2 µM
CC(=O)NC1(C)CCN(Cc2ccc(-c3ccccc3OCc3ccccc3)cc2)C1 (centres undefined)	–	inconclusive: 112 µM [inhibitor, partial curve]
O=C(c1ccoc1)N1CCCn2cc(-c3ccccc3)nc21	–	inconclusive: 44.7 µM [inhibitor, partial curve]
Cc1ccnc(N2CCN(C3CCC4(CCNCC4)CC3)CC2)c1	inactive: 1.44%	–
COC1C(=O)N(c2cccc(F)c2)C12CCN(C(=O)c1cc3ccccc3[nH]1)CC2 (centres undefined)	–	inconclusive: 20 µM [inhibitor, full curve]
